Measured values published in PubChem BioAssay AID662 (National Center for Advancing Translational Sciences (NCATS), 2007).
In all, about 71,000 compounds went through this assay and about 1,800 (2.5%) were called active. The shares of active, inactive and inconclusive entries below differ from those in the screen. Calls follow the shape of the dose curve; as a rule, active = well fitted activation curve with a large enough effect in the signal ratio, with a control signal flat (not every such curve was filed as active); inconclusive = small, poorly fitted or top-dose-only effect, or effect the other way, or a change in a side signal; inactive = flat fitted curve, though single readings scatter; the % refers to the signal ratio. Potencies of inconclusive entries are doubtful fits and often do not repeat.

experiment: Cell signaling CRE-BLA (Fsk stim); settings: CHO CRE-bla reporter (cAMP response element driving beta-lactamase), forskolin EC10, beta-lactamase ratio; activity change, negative = inhibition: at 38.2 µM (top of the series) unless noted; as to activity change, negative = inhibition: % of control where 0% means no effect
Summary of the method: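 Modulation of forskolin-driven signalling is measured in CHO cells carrying a CRE-controlled beta-lactamase reporter. Cells are stimulated with EC10 NKH 477 in the presence of titrated compound for 3 h at 37 °C, then loaded with CCF4 for 2 h at room temperature.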
Potency is read from the fitted curve at half-maximal effect; tags tell the direction and shape of the fitted curve.

| SMILES | Potency | activity change, negative = inhibition |
| --- | --- | --- |
| Cc1cc(NC(=O)C2CCC2)n(-c2ccccn2)n1 | active: 3.16 µM | – |
| Nc1ccc(SC(F)(F)F)cc1C(=O)c1ccccc1 | – | inconclusive: 14.7% [cytotoxic] |
| Cc1ccc(C)c2[nH]c(=O)c(CN(CCCN(C)C)C(=O)NCc3ccccc3)cc12 | – | inconclusive: -11.8% |
| CCNc1ncc2ncc(=O)n(Cc3ccc(F)cc3)c2n1 | – | inconclusive: -1.03% |
| CCN(CC)c1ccc(NC(=O)c2cc(OC)cc(OC)c2)c(C)c1 | inconclusive: 6.31 µM [rising, partial curve] | – |
| O=c1[nH]c2ccccc2cc1-c1noc(-c2cccnc2)n1 | – | inactive: 2.46% |
| COc1nc(Nc2ccc(-c3nc4ccccc4o3)cc2)nc(N2CCOCC2)n1 | inconclusive: 3.16 µM [rising, full curve] | – |
| CCOc1ccc2nc(NCCCNS(=O)(=O)c3ccccc3)c(C#N)cc2c1 | inconclusive: 12.6 µM [rising, partial curve] | – |
| CCC1CCc2c(sc3ncnc(N4CCOCC4)c23)C1 (stereo unspecified) | – | inactive: 18.2% |
| Cc1cc(C(=O)Nc2nnc(C3CCCCC3)s2)no1 | – | inconclusive: 32.6% |
| O=C(CSc1nnc(COc2ccc(F)cc2)o1)N1c2ccccc2CCc2ccccc21 | – | inconclusive: 17.1% |
| C=CCn1nnnc1SCC(=O)Nc1ccccc1C(=O)OC | – | inconclusive: -4.86% |
| Cc1c2cccc(Sc3ccccc3)c2c2c3c(cccc13)[S+](c1ccccc1)C2 (stereo unspecified) | – | inconclusive: 20.2% [at 7.6 µM] |
| CCn1c2ccccc2c2cc(NC(=O)C3CCN(S(=O)(=O)c4cccs4)CC3)ccc21 | – | inactive: -5.84% |
| C1CCN=C(Nc2nn[nH]n2)CC1 | inconclusive: 10 µM [rising, partial curve] | – |
| O=C1c2ccccc2C(=O)N1Cc1ccco1 | – | inactive: 5.31% |
| CCOC(=O)CSC1=Nc2ccccc2C2=NC(CC(=O)NCc3cccs3)C(=O)N12 (stereo unspecified) | – | inconclusive: -15.8% |
| CN(C)c1ccc(NC(=O)c2cc3c(=O)n4ccccc4nc3n2C)cc1 | active: 10 µM | – |
| COC(=O)n1c(=S)oc2cc(Cl)ccc21 | – | inactive: 9.15% |
| COc1cc(/C=C\c2ccc(OC)cc2OC)cc(OC)c1 | active: 2 µM | – |
| CCCCOCCCNC(=O)c1cccs1 | – | inconclusive: -7.02% [at 7.6 µM] |

| SMILES | Potency | activity change, negative = inhibition |
| --- | --- | --- |
| COc1cc2c(cc1OC)/C(=C/C#N)NC(C)(C)C2 | active: 2 µM | – |
| COc1ccc2nc(NC(=O)C3CCN(S(=O)(=O)c4cccc5nsnc45)CC3)sc2c1 | inconclusive: 5.01 µM [falling, partial curve] | – |
| CCCCC(=O)Nc1cccc(-c2nn3c(C)nnc3s2)c1 | – | inconclusive: 22.7% |
| CCCCc1cc(=O)oc2c(CN3CCCC3)c(O)c(Cl)cc12 | inconclusive: 12.6 µM [rising, partial curve] | – |
| C[C@H](CO)NC(=O)[C@@H]1C[C@H]1[C@@H](NP(=O)(c1ccccc1)c1ccccc1)c1ccccc1 | – | inactive: -13.6% |
| CC(C)C1N=C2c3ccccc3N=C(SCc3cc(=O)n4cc(Cl)ccc4n3)N2C1=O (stereo unspecified) | active: 1.26 µM | – |
| COc1ccc(-n2c(=O)cc(N3CCN(c4ccccc4F)CC3)[nH]c2=O)cc1 | inconclusive: 0.251 µM [falling, partial curve] | – |
| COc1ccc(S(=O)(=O)Cc2ccc(C(=O)N3CCN(c4cccc(C)c4C)CC3)o2)cc1 | – | inconclusive: -8.44% |
| CCN(CC)CCNC(=O)CCc1n[nH]c(=O)c2ccccc12 | – | inactive: -0.24% |
| CCOCCCNc1nc(=S)[nH]c2cc(OC)c(OC)cc12 | – | inconclusive: -10.1% |
| O=C(Nc1sc2c(c1C(=O)O)CCCC2)c1cccs1 | – | inactive: -7.84% |
| Cc1cc(NC(=O)c2cnn3cccnc23)n(-c2ccccc2)n1 | inconclusive: 5.01 µM [rising, partial curve] | – |
| CCCCn1cnc2c(SC)ncnc21 | – | inactive: 14.2% [at 7.6 µM] |
| OCCNc1nc(Nc2ccccc2)nc(Nc2ccccc2)n1 | inconclusive: 0.316 µM [rising, full curve, poor fit] | – |
| O=S(=O)(NCCc1ccccn1)c1ccc(F)c(F)c1 | inconclusive: 15.8 µM [rising, single point] | – |
| COCC(=O)Nc1nc2n(n1)C(c1ccccc1)CC(c1ccc(OC)cc1)N2 (stereo unspecified) | – | inconclusive: -12.1% |
| CCC(C)NC(=O)CSC1=Nc2ccccc2C2=NC(CC(=O)NCc3ccc(F)cc3)C(=O)N12 (stereo unspecified) | – | inactive: -8.09% |
| Cn1c(=O)[nH]c(=O)c2c1nc(N1CCOCC1)n2CCSc1ncccn1 | – | inactive: 14.4% |
| O=C(NCc1cccnc1)C1CCCCN1S(=O)(=O)c1ccc(F)cc1 (stereo unspecified) | – | inconclusive: 13.9% |
| CC1(C)CC(=O)c2cc(C(=O)N3CCN(CCO)CC3)c(=O)n(-c3ccc(Cl)cc3)c2C1 | – | inconclusive: 8.2% [at 7.6 µM] |
| CCn1cc(C(=O)Nc2ccc3c(c2)OCCO3)c2cc(OC)c(OC)cc2c1=O | active: 1.26 µM | – |

| SMILES | Potency | activity change, negative = inhibition |
| --- | --- | --- |
| Cc1cccc(C)c1NC(=O)CSc1nnc([C@@H]2CCCN2C(=O)OC(C)(C)C)o1 | inconclusive: 10 µM [rising, single point] | – |
| Cc1nc2ccc(S(=O)(=O)N(C)CC(=O)NCc3ccc4c(c3)OCO4)cc2s1 | – | inconclusive: 27% |
| Cc1cc(C)c(C#N)c(SCC(=O)CC(=O)OC(C)C)n1 | – | inactive: 17.7% |
| COc1ccc(N2C(=O)CC(Nc3ccc(N4CCOCC4)cc3)C2=O)c(OC)c1 (stereo unspecified) | – | inactive: 2.12% |
| CCn1c(O)c(/C=N/n2cnnc2)sc1=S | – | inactive: 4.87% |
| CCOC(=O)CSc1nnc(CSc2nc3ccccc3c(=O)[nH]2)n1-c1ccccc1 | inconclusive: 10 µM [rising, single point] | – |
| CCNc1ncc2nc(CCc3ccccc3)c(=O)n(-c3ccccc3)c2n1 | active: 12.6 µM | – |
| Cc1ccc(S(=O)(=O)N2CCC(C(=O)N[C@@H](C)C(=O)NCC3CCCO3)CC2)cc1 (stereo partly specified) | – | inconclusive: 9.06% |
| Cc1cc2nc3c(=O)[nH]c(=O)nc-3n(C[C@H](O)[C@H](O)[C@H](O)CO)c2cc1C | inconclusive: 25.1 µM [falling, partial curve, poor fit] | – |
| Cc1ccc(S(=O)(=O)N2CCN(CCO)CC2)cc1-c1nnc2c3ccccc3c(C)nn12 | inconclusive: 6.31 µM [rising, partial curve] | – |
| CCOc1ccc(S(=O)(=O)Nc2ccccc2C(=O)Nc2ccccc2N2CCOCC2)cc1 | – | inactive: 6.17% |
| Cc1ccc(-c2nc3ccccc3[nH]2)cc1NC(=O)c1ccco1 | inconclusive: 12.6 µM [rising, partial curve] | – |
| O=C(O)[C@@H]1CCCN1Cc1cc2ccccc2c2ccccc12 | – | inactive: 7.52% [at 7.6 µM] |
| Cc1ccc2nc3c(cc(C(=O)NCC4CCCO4)n3C)c(=O)n2c1 (stereo unspecified) | – | inactive: 10.5% |
| CCOC(=O)N1CCC(NC(=O)c2ccc(CS(=O)(=O)c3ccccc3C)o2)CC1 | – | inactive: -1.8% |
| O=C1c2ccccc2N2C(=O)c3ccccc3C2N1Cc1ccco1 (stereo unspecified) | inconclusive: 12.6 µM [rising, partial curve] | – |
| [N-]=[N+]=Nc1ccc(C(=O)CSC[C@@H](NC(=O)CC[C@@H](N)C(=O)O)C(=O)NCC(=O)O)cc1 | – | inactive: -1.16% |
| COCCNc1c(-c2ccc(O)cc2)nc2ccc(Cl)cn12 | – | inactive: 10.8% |
| N#CCCn1c(=O)c(-c2cccc(C#N)c2)nc2cnc(Oc3ccccc3)nc21 | – | inactive: -3.66% |
| CCOC(=O)c1[nH]c2ccc(OC)cc2c1N=CN(C)C | – | inactive: 14.9% |
| Cc1nnc(SCC(=O)NC(C)c2ccccc2)[nH]c1=O (stereo unspecified) | inconclusive: 0.0251 µM [rising, full curve, poor fit] | – |

| SMILES | Potency | activity change, negative = inhibition |
| --- | --- | --- |
| COc1ccc(Nc2cc(C)nc(N3CCOCC3)n2)cc1 | active: 3.98 µM | – |
| O=C1NC(=O)C(CC(=O)N(c2ccccc2)C2(C(=O)NC3CCCC3)CCCCC2)N1 (stereo unspecified) | – | inconclusive: -16.1% |
| O=C(C1CCN(S(=O)(=O)c2ccc3ccccc3c2)CC1)N1CCN(c2ncccn2)CC1 | – | inconclusive: 11.8% |
| CC(=O)NC(N1CCCCC1)C(F)(F)C(F)(F)C(F)(F)C(F)F (stereo unspecified) | – | inactive: -4.75% |
| COc1ccccc1C(=O)Nc1cccc(N(C)S(C)(=O)=O)c1 | – | inactive: 9.9% |
| NC(=O)CN1CCCN(S(=O)(=O)c2ccc(Br)cc2)CC1 | – | inconclusive: -9.27% |
| CCOc1ccc2nc(NC(=O)Cn3cnc4c3c(=O)n(C)c(=O)n4C)sc2c1 | inconclusive: 12.6 µM [rising, partial curve, poor fit] | – |
| COC(=O)C1=CN(C)C=C(C(=O)OC)C1c1ccccc1Cl | inconclusive: 7.94 µM [rising, partial curve] | – |
| CC1=C(C(=O)Nc2ccccc2)C(c2cccs2)n2nnnc2N1 (stereo unspecified) | – | inconclusive: -23.1% |
| CCOC(=O)C1=C(N)n2c(s/c(=C\c3cccs3)c2=O)=C(C(=O)OCC)C1c1cccs1 (stereo unspecified) | inconclusive: 12.6 µM [rising, single point] | – |
| CCCOc1ccc(C2/C(=C(\O)c3c(C)[nH]c(C(=O)OC)c3C)C(=O)C(=O)N2CCN(C)C)cc1 (stereo unspecified) | – | inconclusive: 12.6% |
| CN1CCN(c2cc(-c3ccc(N(C)C)cc3)ncn2)CC1 | inconclusive: 10 µM [rising, single point] | – |
| O=C(Nc1ccc(Cl)cc1)N(Cc1cccnc1)Cc1ccco1 | – | inconclusive: 1.51% |
| Cc1n[nH]c(C)c1S(=O)(=O)N1CCCC(C(=O)N2CCc3ccccc32)C1 (stereo unspecified) | – | inactive: -9.4% |
| C(=N\c1nc2ccccc2n1CCN1CCCCC1)/c1ccc2c(c1)OCO2 | – | inconclusive: -19.8% |
| CCN(CC)CCN(Cc1cc2cc3c(cc2[nH]c1=O)OCCO3)C(=O)NC1CCCCC1 | – | inactive: 14.6% |
| COc1ccc(-n2c(=O)cnc3cnc(N4CCNCC4)nc32)cc1 | inconclusive: 12.6 µM [rising, single point] | – |
| CCOC(=O)C(C)Sc1nnc(Cc2cc(=O)[nH]c(=O)[nH]2)n1-c1cccc(OC)c1 (stereo unspecified) | – | inactive: -2.06% |
